According to US20230167169A1:

Assays:
[1] = molecular target: N-Interface (Plasmodium falciparum); assay: BLI; biotinylated target on streptavidin sensor; antibody at 5 µg/mL; BLI: target immobilized, antibody flowed over it (multivalent binding possible)
[2] = molecular target: … (Plasmodium falciparum); assay: as above

B1: AB-000224 (antibody)
light: ESVLTQPPSVSGAPGQRVTISCTGMNSNIGAGYDVYWYQQLPGRAPKLLIYGNSNRPSGVPDRFSGSRSGTSASLAITGLQAEDEADYYCQSYDTSLNGWAFGGGTKLTVLGQPKAAPSVTLFPPSSEELQANKATLVCLVSDFYPGAVTVAWKADGSPVKVGVETTKPSKQSNNKYAASSYLSLTPEQWKSHRSYSCRVTHEGSTVEKTVAPAECS
heavy: EVQLVESGGGLVQPGRSLRLPCTASGFSFGDHAMSWVRQAPGKGLEWVGFIRKTTYGATTHYAAAVRGRFTISRDDSKSIVYLQMNSLKTEDTAVYFCTRVQLDYGPGYQYYGMDVWGQGTTVTVSS[… human IgG1 constant region …]
- Kd [1]: 4.57 nM
- koff [1]: 0.012 s⁻¹
- kon [1]: 2.63e+06 M⁻¹ s⁻¹

B2: AB-007088 (antibody)
light: GVQMTQSPSTLSASVGDRVTLTCRASQSISSWLAWYQQKPGKAPKLLIYDASSLESGVPSRFSGSGSGTEFTLTISSLQPDDFATYYCQQYNSYSFWTFGQGTKVEIKRTVAAPSVFIFPPSDEQLKSGTASVVCLLNNFYPREAKVQWKVDNALQSGNSQESVTEQDSKDSTYSLSSTLTLSKADYEKHKVYACEVTHQGLSSPVTKSFNRGEC
heavy: QVQLVESGGGVVQPGRSLRLSCAASGFAFNTYGMHWVRQTPGKGLEWVAIIWYDGSQKYYADSVQGRFIISRDNHKNTLSLQMNGLRAEDTAVYFCVRVRFSVGPHGSAFDLWGQGTMVIVSS[… human IgG1 constant region …]
- Kd [2]: < 0.00933 nM
